According to US7550150B2, “Methods of treating or preventing a disease, disorder or condition associated with a viral infection” (Barros Research Institute, priority 2005, dated 2009):
Like-named read-outs stand apart in the source and are kept apart here. Marks after values point to notes of the source that are not given here.

How the values were obtained:
[1] = system: Influenza A/NWS/33 (H1N1) virus; assay type: in vivo, BALB/c mice; conditions: for Mean Day to Death ± SD: mice dying prior to day 21
[2] = system: Influenza A/NWS/33 (H1N1) virus; assay type: in vivo, BALB/c mice; conditions: for Mean Day to Death ± SD: mice dying prior to day 21; remark: listed apart in the source
[3] = system: Influenza A/NWS/33 (H1N1) virus; assay type: in vivo, BALB/c mice
[4] = system: Punta Toro virus, Adames strain; parameters: species or system C57BL/6 mice; conditions: mouse, in vivo, ip
[5] = system: Punta Toro virus, Adames strain; parameters: species or system C57BL/6 mice; conditions: mouse, in vivo, ip; remark: listed apart in the source
[6] = 75 mg/kg/day i.p. bid x5 beg. 4 h pre-virus
[7] = 37.5 mg/injection i.p. bid × 5 beg. −4 h
[8] = 75 mg/kg/day i.p. bid × 5 beg 4 h pre
[9] = 0.5 ng/kg/day i.p. qd x5 beg. 24 h post-virus
[10] = 5 ng/kg/day i.p. qd x5 beg. 24 h post-virus
[11] = 50 ng/kg/day i.p. qd x5 beg. 24 h post-virus
[12] = 500 ng/kg/day i.p. qd x5 beg. 24 h post-virus
[13] = 5000 ng/kg/day i.p. qd x5 beg. 24 h post-virus
[14] = 10 μg/injection i.p. days 0, 3, 6
[15] = 100 μg/injection i.p. days 0, 3, 6
[16] = 500 μg/injection i.p. days 0, 3, 6
[17] = 0.1 μg/inj. i.p + i.n. days 0, 3, 6
[18] = 1 μg/inj. i.p + i.n. days 0, 3, 6
[19] = 10 μg/inj. i.p + i.n. days 0, 3, 6

With NC(=O)c1ncn([C@@H]2O[C@H](CO)[C@@H](O)[C@H]2O)n1 [Ribavirin, reference compound] the “Infected, Treated Mice Surv/Total” value [1, 6] was 10/10***, the “Mean Day 11 SaO2 (% ± SD)” value [1, 6] was 85.1 ± 2.6 % and the protection from death [1, 6] was 100%. For the same molecule, the “Infected, Treated Mice Surv/Total” value [2, 7] was 8/8***, the “Mean Day 11 SaO2 (% ± SD)” value [2, 7] was 83.5 ± 1.9 % and the “Infected, Treated Mice Surv/Total” value [3, 8] was 10/10***. For the same molecule, the “Mean Day 11 SaO2 (% ± SD)” value [3, 8] was 87.2 ± 5.5 %.

B1: rBBX-01: Recombinant Apicomplexa-related protein (ARP) having the sequence of SEQ ID NO:20; termed Barrogen, also called rBBX-01 or E1 (protein, listed as Eimeria tenella)
chain: GEEADTQAWDTSVREWLVDTGRVFAGGVASIADGCRLFGAAVEGEGNAWEELVKTNYQIEVPQEDGTSISVDCDEAETLRQAVVDGRAPNGVYIGGTKYKLAEVKRDFTFNDQNYDVAILGKNKGGGFLIKTPNENVVIALYDEEKEQNKADALTTALNFAEYLYQGGF
In the case of B1, the “Infected, Treated Mice Surv/Total” value [1, 9] is reported as 0/10, the “Mean Day 11 SaO2 (% ± SD)” value [1, 9] is reported as 75.0 ± 0.0% and the “Mean Day to Death ± SD” value [1, 9] is reported as 9.1 ± 1.1 days. For the same molecule, the “Infected, Treated Mice Surv/Total” value [1, 10] was 0/10, the “Mean Day 11 SaO2 (% ± SD)” value [1, 10] was 75.0 ± 0.0% and the “Mean Day to Death ± SD” value [1, 10] was 8.9 ± 1.6 days. The “Infected, Treated Mice Surv/Total” value [1, 11] was 0/10, the “Mean Day 11 SaO2 (% ± SD)” value [1, 11] was 75.0 ± 0.0% and the “Mean Day to Death ± SD” value [1, 11] was 8.7 ± 1.2 days. The “Infected, Treated Mice Surv/Total” value [1, 12] was 0/10, the “Mean Day 11 SaO2 (% ± SD)” value [1, 12] was 77.3 ± 4.8% and the “Mean Day to Death ± SD” value [1, 12] was 9.9 ± 2.3 days. The “Infected, Treated Mice Surv/Total” value [1, 13] was 0/10, the “Mean Day 11 SaO2 (% ± SD)” value [1, 13] was 76.3 ± 2.6% and the “Mean Day to Death ± SD” value [1, 13] was 10.3 ± 1.6 days. The SaO2 decline ([1]; 5000 ng/kg/day, days 7 and 8 (FIG. 1)) was “significantly inhibited”, the Lung scores ([1]; 5000 and 500 ng/kg/day, day 3 (FIG. 2)) was “significantly inhibited” and the lung virus titers ([1]; all doses, either time the lungs were assayed (FIG. 4)) was “No inhibition”. The “Delay in mean day to death” value ([1]; highest dosage (5000 ng/kg/day) vs saline, P>0.05) was 0.8 days, the “Infected, Treated Mice Surv/Total” value ([2]; 10 μg/injection i.p. day 0) was 1/10 and the “Mean Day 11 SaO2 (% ± SD)” value ([2]; 10 μg/injection i.p. day 0) was 78.3 ± 4.3%. The “Mean Day to Death ± SD” value ([2]; 10 μg/injection i.p. day 0) was 13.3 ± 3.0 days, the “animals survived / prevented from dying” value ([2]; 10 μg/injection i.p. days 0 (4 h post-virus) and 3) was 60% and the “Infected, Treated Mice Surv/Total” value ([2]; 10 μg/injection i.p. days 0, 3) was 6/10***. For the same molecule, the “Mean Day 11 SaO2 (% ± SD)” value ([2]; 10 μg/injection i.p. days 0, 3) was 79.6 ± 3.7 %, the “Infected, Treated Mice Surv/Total” value [2, 14] was 3/10* and the “Mean Day 11 SaO2 (% ± SD)” value [2, 14] was 78.9 ± 5.0 %. For the same molecule, the “preventing death of infected mice” value [2, 14] was 30%, the “Mean Day to Death ± SD” value [2, 14] was 11.1 ± 0.9 days and the “Mean Day to Death ± SD” value ([2]; 10 μg/injection i.p. days 0, 3) was 15.5 ± 4.0 days. The “Infected, Treated Mice Surv/Total” value ([2]; 10 μg/injection i.p. days 0, 6) was 0/10, the “Mean Day 11 SaO2 (% ± SD)” value ([2]; 10 μg/injection i.p. days 0, 6) was 77.8 ± 3.7 % and the “Mean Day to Death ± SD” value ([2]; 10 μg/injection i.p. days 0, 6) was 12.2 ± 2.9 days. For the same molecule, the “Infected, Treated Mice Surv/Total” value [2, 15] was 1/10, the “Mean Day 11 SaO2 (% ± SD)” value [2, 15] was 76.3 ± 2.6% and the “Mean Day to Death ± SD” value [2, 15] was 11.3 ± 2.6 days. The “Infected, Treated Mice Surv/Total” value [2, 16] was 1/10, the “Mean Day 11 SaO2 (% ± SD)” value [2, 16] was 75.9 ± 2.8% and the “Mean Day to Death ± SD” value [2, 16] was 10.6 ± 2.9 days. The efficacy ([2]; 500 and 100 μg/injection, 3 day treatment schedule) was “not considered efficacious”, the “efficacy compared with other immunomodulatory substances in influenza in mice” value ([2]; ranking Met-Enk>polyprenol>polyICLC>Ampligen®>IM-862=Imu Vert>BCH 527) was “approximately the same as Met-Enk and polyprenol” and the “Infected, Treated Mice Surv/Total” value ([3]; 0.1 μg/inj. i.n. days 0, 3, 6) was 0/10. The “Mean Day 11 SaO2 (% ± SD)” value ([3]; 0.1 μg/inj. i.n. days 0, 3, 6) was 75.8 ± 2.5%, the “Mean Day to Death ± SD” value ([3]; 0.1 μg/inj. i.n. days 0, 3, 6) was 9.9 ± 1.0 days and the “Infected, Treated Mice Surv/Total” value ([3]; 0.1 μg/inj. i.p + i.n. (total double dose) days 0, 3, 6) was 1/10. For the same molecule, the “Mean Day 11 SaO2 (% ± SD)” value [3, 17] was 76.2 ± 3.8%, the “Mean Day to Death ± SD” value [3, 17] was 8.8 ± 0.7 days and the “Infected, Treated Mice Surv/Total” value ([3]; 0.1 μg/inj. i.p. days 0, 3, 6) was 10/10***. For the same molecule, the “Mean Day 11 SaO2 (% ± SD)” value ([3]; 0.1 μg/inj. i.p. days 0, 3, 6) was 86.7 ± 7.9 %, the “Mean Day to Death ± SD” value ([3]; 0.1 μg/inj. i.p. days 0, 3, 6) was over 21.0 ± 0.0 days and the “Infected, Treated Mice Surv/Total” value ([3]; 1 μg/inj. i.n. days 0, 3, 6) was 0/10. For the same molecule, the “Mean Day 11 SaO2 (% ± SD)” value ([3]; 1 μg/inj. i.n. days 0, 3, 6) was 78.4 ± 5.6%, the “Mean Day to Death ± SD” value ([3]; 1 μg/inj. i.n. days 0, 3, 6) was 11.1 ± 3.1 days and the “Infected, Treated Mice Surv/Total” value ([3]; 1 μg/inj. i.p + i.n. (total double dose) days 0, 3, 6) was 0/10. The “Mean Day 11 SaO2 (% ± SD)” value [3, 18] was 75.0 ± 0.0%, the “Mean Day to Death ± SD” value [3, 18] was 9.0 ± 0.5 days and the “Infected, Treated Mice Surv/Total” value ([3]; 1 μg/inj. i.p. days 0, 3, 6) was 8/10***. The “Mean Day 11 SaO2 (% ± SD)” value ([3]; 1 μg/inj. i.p. days 0, 3, 6) was 84.1 ± 4.0 %, the “Mean Day to Death ± SD” value ([3]; 1 μg/inj. i.p. days 0, 3, 6) was 13.5 ± 0.7 days and the “Infected, Treated Mice Surv/Total” value ([3]; 10 μg/inj. i.n. days 0, 3, 6) was 0/10. The “Mean Day 11 SaO2 (% ± SD)” value ([3]; 10 μg/inj. i.n. days 0, 3, 6) was 75.9 ± 2.8%, the “Mean Day to Death ± SD” value ([3]; 10 μg/inj. i.n. days 0, 3, 6) was 10.2 ± 2.1 days and the “Infected, Treated Mice Surv/Total” value ([3]; 10 μg/inj. i.p + i.n. (total double dose) days 0, 3, 6) was 0/10. The “Mean Day 11 SaO2 (% ± SD)” value [3, 19] was 75.0 ± 0.0%, the “Mean Day to Death ± SD” value [3, 19] was 8.5 ± 0.7 days and the “Infected, Treated Mice Surv/Total” value ([3]; 10 μg/inj. i.p. days 0, 3, 6) was 9/10***. For the same molecule, the “Mean Day 11 SaO2 (% ± SD)” value ([3]; 10 μg/inj. i.p. days 0, 3, 6) was 84.1 ± 4.6 %, the “Mean Day to Death ± SD” value ([3]; 10 μg/inj. i.p. days 0, 3, 6) was 18.0 ± 0.0 days and the “mean lung virus titers reduced compared to the placebo control” value ([3]; all groups treated i.p., day 6) was 0.4-0.8 log10. The “lung virus titer reduction” value ([3]; i.n.+i.p treated group, lowest drug dosage) was 1.4 log10, the “lung virus titer reduction” value ([3]; i.p. 10 μg dose, day 1) was 0.7 log10 and the “Infected, Treated Mice Surv/Total” value [4] was 11/11***. For the same molecule, the “Mean Day to Death ± SD” value [4] was over 21.0 ± 0.0, the “Infected, Treated Mice Surv/Total” value [5] was 11/11*** and the “Mean Day to Death ± SD” value [5] was over 21.0 ± 0.0.
